# From paper PMC12040169 (PLOS Biology, 2025)
# Some of the results follow.
# Tested on: T1, C. trachomatis L2/434/Bu expressing GFP (CTL2-GFP)
# T1 construct: L2/434/Bu GFP intracellular growth in HeLa cells
# Design: species or system HeLa; C. trachomatis total inclusion area by high-content imaging, normalised to DMSO
# Conditions: total inclusion area; 28.5 h, 10 µM; inhibitor
# Method in brief: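 Imaging read-out: GFP inclusions and Hoechst nuclei captured by high-content imaging after fixation. Inclusion area/number = chlamydial growth; nuclei count = host cell viability. MIC calculated per earlier method.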
row,SMILES,% of control remaining
1,CSCCC(NC(=O)c1c(C)oc2c1CCCC2)C(=O)O (centres unmarked) [CBK264029],104.065
2,CCOc1ccc(-c2nc(-c3cccc(NC(=O)c4ccccc4C(=O)O)c3)no2)cc1 [CBK299832],63.9968
3,CC(C)(C)NCC(O)COc1ccc(Cl)cc1Cl (centres unmarked) [CBK025597C],31.4642
4,O=C1c2ccc(S(=O)(=O)c3ccc4c(c3)C(=O)N(CCO)C4=O)cc2C(=O)N1CCO [CBK023065],91.8811
5,CN(C)C(=O)C1(Cc2ccccc2-c2ccccc2)CCN(C(=O)c2cccc(F)c2)CC1 [CBK285675],100.746
6,NC(=O)C1CN(C(=O)CN2CCCc3ccccc32)c2ccccc2O1 (centres unmarked) [CBK295163],104.094
7,NC(=O)c1nc(-c2ccco2)nc2c1[nH]c(=O)n2-c1ccc(Cl)cc1 [CBK287545],84.7577
8,Cn1c(=O)c2c(ncn2CC(=O)NCCOc2ccccc2)n(C)c1=O [CBK304654],50.6124
9,COc1cccc(CNc2cccc(C(=O)O)c2)c1OCc1ccc(Cl)cc1Cl [CBK074424],103.651
10,O=C(CN1CCOCC1)Nc1ccc(NC(=O)CN2CCOCC2)c(Cl)c1 [CBK264243],104.092
11,Cc1nccn1CC(C)C(=O)NCCN(C)C1CCCCC1 (centres unmarked) [CBK282040],75.9673
12,O=C(NC(Cc1cccs1)c1nccs1)c1ccncc1 (centres unmarked) [CBK285134],91.6556
13,CC(=O)Nc1ccc(S(=O)(=O)N2CCC3(CC2)NC(=O)c2cc(-c4ccoc4)ccc2O3)cc1 [CBK115856],74.3487
14,N#Cc1c(N)nc2c(c1-c1cccnc1)CCCC2 [CBK287885],125.985
15,Cc1ccc(C(=O)c2coc3ccc(O)cc23)cc1 [CBK115557],107.465
16,Cc1ccc2c(CC(=O)N(C)CCc3cn[nH]c3)coc2c1 [CBK283239],83.8188
17,Cc1ccc(C2C(C(=O)c3sc(-c4ccccc4)nc3C)=C(O)C(=O)N2CCN(C)C)o1 (centres unmarked) [CBK234004],136.795
18,O=C(Nc1ccc(Br)c2cccnc12)c1ccc(Cn2cc(Cl)cn2)o1 [CBK265893],83.9964
19,CCc1nn(CC(=O)NC2CC2)c(=O)c2cc3sc(C)cc3n12 [CBK284099],82.3058
20,O=C(Nc1ccc(N2CCN(C(=O)c3ccccc3F)CC2)cc1)c1nc[nH]n1 [CBK269497],76.4068
21,O=C(Nc1ccc(S(=O)(=O)NCC2CCCO2)cc1)c1cc(-c2ccccc2)nc2ccccc12 (centres unmarked) [CBK267537],92.0434
22,COc1cc(/C=C2\NC(=S)NC2=O)c(Cl)cc1O [CBK102003],70.3809
23,O=C(CC1CCCC1)NCCn1nc(-c2cccs2)ccc1=O [CBK283841],86.5569
24,CS(=O)(=O)N(Cc1ccc(Cl)cc1)c1ccc(C(=O)Nc2cccnc2)cc1 [CBK263334],64.0766
25,CN(C)Cc1cc(CN(C)C)c(O)c(C(C)(C)C)n1 [CBK260969],102.281

row,SMILES,% of control remaining
1,O=C(c1ccccc1F)N1CCC(O)(c2cccnc2F)CC1 [CBK284356],87.636
2,CS(=O)(=O)N1CCCc2cc(-c3csc(-c4cnccn4)n3)ccc21 [CBK305239],21.5551
3,CC(=O)N1CCCc2cc(C(O)CN3CCC(O)(c4ccc(F)cc4)CC3)ccc21 (centres unmarked) [CBK286481],76.0178
4,COc1ccc(Cl)cc1N1CCN(C/C=C/c2ccccc2)CC1 [CBK126415],76.3422
5,CN(Cc1ccccc1)c1nc2c(c(=O)n(C)c(=O)n2C)n1CCSc1ncccn1 [CBK269564],90.5036
6,Cc1oc(C(=O)O)cc1CSCc1cc(C(=O)O)oc1C [CBK263275],101.935
7,CSc1nnc(Cc2nnc(SC)n2-c2ccccc2)n1-c1ccccc1 [CBK267145],103.796
8,c1ccc(Cn2cc(-c3nccnc3OC(c3ccccc3)c3ccccc3)cn2)cc1 [CBK107093],58.5113
9,O=C(CN1CCOCC1)N1CCC(Cn2cncn2)(C2CCCCC2)CC1 [CBK136803],90.5734
10,Cc1cc(Cl)c(OCCNCCO)c(Br)c1 [CBK265066G],82.6319
11,Cc1ccc(SCCNC(=O)CSc2n[nH]c(=O)n2C2CC2)cc1 [CBK295605],84.7982
12,Cc1cccc(C2(CNC(=O)C3COCCO3)CCCCC2)c1 (centres unmarked) [CBK305087],49.3319
13,CCN1CCCC2(CCN(C(=O)c3ccoc3)C2)C1 (centres unmarked) [CBK132832],50.4899
14,CN1C(=O)c2ccccc2C(=O)[C@@]2(C)CN(CC(C)(C)C)C[C@@H]12 [CBK283481],86.1218
15,O=C(O)CCc1ccc(S(=O)(=O)Nc2ccc(N3CCCC3=O)cc2)cc1 [CBK295647],91.0791
16,CC(=O)Nc1cccc(-c2cnc3[nH]c(=O)n([C@H](C)c4ccccc4)c3n2)c1 [CBK064188],92.2343
17,Cc1cccc(CN2CC[C@@H]3[C@H](C2)[C@@H](c2ccsc2)CN3C(=O)c2ccccc2F)c1 [CBK285659],93.3672
18,C(=N\N1CCOCC1)/c1ccc2c(c1)OCO2 [CBK026446],36.1429
19,c1cnn(CCNc2nc3nonc3nc2N2CCCCC2)c1 [CBK306740],85.264
20,O=S(=O)(NCCn1c(-c2ccncc2)nc2ccccc21)c1ccccc1 [CBK288578],75.6121
21,COc1cccc(Cn2c(C3CCNCC3)cc3cccnc32)c1 [CBK285076],87.2074
22,CC1CCN(C(=O)c2cc(-c3ccco3)[nH]n2)CC1 [CBK296648],104.477
23,Cc1ccc(S(=O)(=O)NC(CC(=O)Nc2ccc(Br)cc2)c2ccccc2)cc1 (centres unmarked) [CBK265110],76.5414
24,Cc1cc(=O)oc2ccc(OCC(=O)N(Cc3ccc(F)cc3)Cc3ccco3)cc12 [CBK266639],85.1322
25,CCCCC(C(=O)O)N1C(=O)C2CC=C(Cl)CC2C1=O (centres unmarked) [CBK286536],101.885
